Experimental data: patent US20220396616A1 (SANYOU BIOPHARMACEUTICALS, published 2022)
Numbering of substitutions follows the chain as printed.

B1: chimeric antibody NA3-S (Fc fusion)
chain: QVQLQESGGGLVQPGGSLRLSCAASGSIFNIPVMGWYRQAPGKQRELVAGISTGGTTNYGDSVKGRFTISRDNAKNTVYLQMNSLKPEDTAVYYCNVLVVSGIGSTLEVWGQGTLVTVS[human IgG1 Fc omitted]
notes: VHH-Fc (hIgG1); also called candidate antibody NA3-S; NA3-S antibody
B2: chimeric antibody NA6-S (Fc fusion)
chain: B1 chain with S27T, I28F, V100I, T106H
notes: VHH-Fc (hIgG1); also called candidate antibody NA6-S; NA6-S antibody
B3: chimeric antibody NA1-S (Fc fusion)
chain: EVQVQESGGGLVQAGTSLRLSCAASGNIFRIDTMGWYRQAPGKQRELVAGISRGGTTTYAHSVKERFTISRDNAKNTMYLQMNSLKSEDTAGYYCNAQAWDPGTFRYLEVWGQGTLVTVSA[human IgG1 Fc omitted]
notes: VHH-Fc (hIgG1); also called candidate antibody NA1-S; NA1-S antibody
B4: chimeric antibody NA5-S (Fc fusion)
chain: EVQVVESGGGLVQPGGSLRLSCAASGSILHIPVMSWYRQAPGKQRELVAGISTGGTTNYGDSVKGRFTISRDNAKNTVYLQMNSLKPEDTAAYYCNVLVVSGIGSHLEVWGQGTLVTVSS[human IgG1 Fc omitted]
notes: VHH-Fc (hIgG1); also called candidate antibody NA5-S; NA5-S antibody

target: T1, human CLDN18.1 (human, UniProt P56856 1-261); assay: flow cytometry on human CLDN18.1-HEK293 cells
T1 construct: Full length, overexpressed on HEK293 cells; also called hCLDN18.1; human CLDN18.1-HEK293
T1 sequence (P56856 whole entry): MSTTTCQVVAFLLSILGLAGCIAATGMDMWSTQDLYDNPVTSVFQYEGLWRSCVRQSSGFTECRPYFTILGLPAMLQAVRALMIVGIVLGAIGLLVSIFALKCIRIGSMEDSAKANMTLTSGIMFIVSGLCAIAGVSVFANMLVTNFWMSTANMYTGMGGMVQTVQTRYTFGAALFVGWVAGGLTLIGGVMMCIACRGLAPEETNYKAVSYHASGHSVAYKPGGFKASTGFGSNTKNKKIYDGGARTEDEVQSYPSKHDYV

| binding result | Binder |
| --- | --- |
| no binding (tested: 10 µg/mL) | B1 |
| no binding (tested: 10 µg/mL) | B2 |
| no binding (tested: 10 µg/mL) | B3 |
| no binding (tested: 10 µg/mL) | B4 |

target: T2, mouse CLDN18.1 (mouse, UniProt P56857 1-264); assay: flow cytometry on mouse CLDN18.1-HEK293 cells
T2 construct: Full length, overexpressed on HEK293 cells; also called mouse CLDN18.1-HEK293
T2 sequence (P56857 whole entry): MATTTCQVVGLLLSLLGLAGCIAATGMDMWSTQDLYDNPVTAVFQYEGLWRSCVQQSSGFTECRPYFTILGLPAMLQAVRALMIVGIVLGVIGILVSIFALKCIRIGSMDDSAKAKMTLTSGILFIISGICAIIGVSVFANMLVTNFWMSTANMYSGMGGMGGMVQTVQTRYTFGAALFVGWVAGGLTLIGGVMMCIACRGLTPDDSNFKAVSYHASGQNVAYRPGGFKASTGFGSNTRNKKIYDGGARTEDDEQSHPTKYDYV

| binding result | Binder |
| --- | --- |
| no binding (tested: 10 µg/mL) | B1 |
| no binding (tested: 10 µg/mL) | B2 |
| no binding (tested: 10 µg/mL) | B3 |
| no binding (tested: 10 µg/mL) | B4 |

target: human CLDN18.2 (human); assay: cell-based or functional assay

| Binder | CDC cell killing on human CLDN18.2-KATOIII tumor cells, EC50 | Fab-ZAP cell killing (internalization) on CLDN18.2-HEK293T cells, IC50 |
| --- | --- | --- |
| B1 | 4.83 nM | 0.07 nM |
| B3 | 1.91 nM | 0.1 nM |
